Reference: US8466115B2, “Spirocyclic isoxazoline derivatives as antiparasitic agents” (Zoetis LLC, priority 2011, dated 2013)
Some of these results come from one statement about several compounds together.

Experiments:
Assay type in all cases: in vivo
[1] = tested on: Flea (Ctenocephalides felis); assay: Flea (Ctenocephalides felis) Membrane Feed Assay-Adult; conditions: adult fleas fed on treated citrated bovine blood for approximately 2 hours; knockdown and/or death at approximately 2 and 24 hours
[2] = tested on: Soft Tick (Ornithidorus turicata); assay: Soft Tick (Ornithidorus turicata) Blood Feed Assay; conditions: nymph stage ticks fed on treated citrated bovine blood; paralysis and/or death at approximately 24, 48 and 72 hours
[3] = tested on: Horn Fly (Haematobia irritans); assay: Horn Fly (Haematobia irritans) Feed Assay; conditions: horn flies fed on treated citrated bovine blood; knockdown and mortality at approximately 2 and 24 hours

Row | Structure (SMILES) | lethal dose 80% (LD80) [1] [µg/mL] | LD100 [2] [µg/mL] | lethal dose 90% (LD90) [3] [µg/mL]
1 | O=C1OC2(CN(C(=O)C3CC3)C2)c2ccc(C3=NOC(c4cc(Cl)c(Cl)c(Cl)c4)(C(F)(F)F)C3)cc21 (centres unmarked) [Example 1] | ≤ 1 | ≤ 0.1 | ≤ 3
2 | O=C(CSC(F)(F)F)N1CC2(C1)OCc1cc(C3=NOC(c4cc(Cl)c(F)c(Cl)c4)(C(F)(F)F)C3)ccc12 (centres unmarked) [Example 3] | ≤ 1 | ≤ 0.03 | ≤ 3
3 | O=C(C1CS(=O)(=O)C1)N1CC2(C1)OCc1cc(C3=NOC(c4cc(Cl)c(F)c(Cl)c4)(C(F)(F)F)C3)ccc12 (centres unmarked) [Example 5, (5′-(5-(3,5-dichloro-4-fluorophenyl)-5-(trifluoromethyl)-4,5-dihydroisoxazol-3-yl)-3′H-spiro[azetidine-3,1′-isobenzofuran]-1-yl)(1,1-dioxidothietan-3-yl)methanone] | ≤ 1 | ≤ 0.01 | ≤ 3
4 | CS(=O)(=O)CC(=O)N1CC2(C1)OCc1cc(C3=NOC(c4cc(Cl)c(F)c(Cl)c4)(C(F)(F)F)C3)ccc12 (stereo not drawn) [Example 9, Chiral-1-(5′-(5-(3,5-dichloro-4-fluorophenyl)-5-(trifluoromethyl)-4,5-dihydroisoxazol-3-yl)-3′H-spiro[azetidine-3,1′-isobenzofuran]-1-yl)-2-(methylsulfonyl)ethanone] | ≤ 1 | ≤ 0.01 | ≤ 0.3
5 | CC(C)C(=O)N1CC2(C1)OCc1cc(C3=NOC(c4cc(Cl)c(F)c(Cl)c4)(C(F)(F)F)C3)ccc12 (centres unmarked) [Example 29, 1-(5′-(5-(3,5-dichloro-4-fluorophenyl)-5-(trifluoromethyl)-4,5-dihydroisoxazol-3-yl)-3′H-spiro[azetidine-3,1′-isobenzofuran]-1-yl)-2-methylpropan-1-one] | ≤ 1 | ≤ 0.01 | ≤ 1
6 | O=C(CO)N1CC2(C1)OCc1cc(C3=NOC(c4cc(Cl)c(F)c(Cl)c4)(C(F)(F)F)C3)ccc12 (centres unmarked) [Example 30, 1-(5′-(5-(3,5-dichloro-4-fluorophenyl)-5-(trifluoromethyl)-4,5-dihydroisoxazol-3-yl)-3′H-spiro[azetidine-3,1′-isobenzofuran]-1-yl)-2-hydroxyethanone] | ≤ 1 | ≤ 0.03 | ≤ 1
7 | CCC(=O)N1CC2(C1)OCc1cc(C3=NOC(c4cc(Cl)c(F)c(Cl)c4)(C(F)(F)F)C3)ccc12 (centres unmarked) [Example 35, 1-(5′-(5-(3,5-dichloro-4-fluorophenyl)-5-(trifluoromethyl)-4,5-dihydroisoxazol-3-yl)-3′H-spiro[azetidine-3,1′-isobenzofuran]-1-yl)propan-1-one] | ≤ 1 | ≤ 0.01 | ≤ 0.3
8 | O=C(CC1CC1)N1CC2(C1)OCc1cc(C3=NOC(c4cc(Cl)c(F)c(Cl)c4)(C(F)(F)F)C3)ccc12 (centres unmarked) [Example 37, 2-cyclopropyl-1-(5′-(5-(3,5-dichloro-4-fluorophenyl)-5-(trifluoromethyl)-4,5-dihydroisoxazol-3-yl)-3′H-spiro[azetidine-3,1′-isobenzofuran]-1-yl)ethanone] | ≤ 1 | ≤ 0.03 | ≤ 0.3
9 | CC(C)CC(=O)N1CC2(C1)OCc1cc(C3=NOC(c4cc(Cl)c(F)c(Cl)c4)(C(F)(F)F)C3)ccc12 (centres unmarked) [Example 42, 1-(5′-(5-(3,5-dichloro-4-fluorophenyl)-5-(trifluoromethyl)-4,5-dihydroisoxazol-3-yl)-3′H-spiro[azetidine-3,1′-isobenzofuran]-1-yl)-3-methylbutan-1-one] | ≤ 1 | ≤ 0.03 | ≤ 3
10 | O=C(Cn1cccn1)N1CC2(C1)OCc1cc(C3=NOC(c4cc(Cl)c(F)c(Cl)c4)(C(F)(F)F)C3)ccc12 (centres unmarked) [Example 43, 1-(5′-(5-(3,5-dichloro-4-fluorophenyl)-5-(trifluoromethyl)-4,5-dihydroisoxazol-3-yl)-3′H-spiro[azetidine-3,1′-isobenzofuran]-1-yl)-2-(1H-pyrazol-1-yl)ethanone] | ≤ 1 | ≤ 0.03 | ≤ 3
11 | O=C(C1CC1)N1CC2(C1)OCc1cc(C3=NOC(c4cc(Cl)c(F)c(Cl)c4)(C(F)(F)F)C3)ccc12 (centres unmarked) [Example 45, cyclopropyl(5′-(5-(3,5-dichloro-4-fluorophenyl)-5-(trifluoromethyl)-4,5-dihydroisoxazol-3-yl)-3′H-spiro[azetidine-3,1′-isobenzofuran]-1-yl)methanone] | ≤ 1 | ≤ 0.03 | ≤ 1
12 | CCCC(=O)N1CC2(C1)OCc1cc(C3=NOC(c4cc(Cl)c(F)c(Cl)c4)(C(F)(F)F)C3)ccc12 (centres unmarked) [Example 46] | ≤ 1 | ≤ 0.03 | ≤ 1
13 | CS(=O)(=O)CC(=O)N1CC2(C1)OCc1cc(C3=NOC(c4cc(Cl)c(F)c(Cl)c4)(C(F)(F)F)C3)ccc12 (centres unmarked) [Example 48, 1-(5′-(5-(3,5-dichloro-4-fluorophenyl)-5-(trifluoromethyl)-4,5-dihydroisoxazol-3-yl)-3′H-spiro[azetidine-3,1′-isobenzofuran]-1-yl)-2-(methylsulfonyl)ethanone] | ≤ 1 | ≤ 0.03 | ≤ 1
14 | O=C(C1CS(=O)(=O)C1)N1CC2(CCc3cc(C4=NOC(c5cc(Cl)c(F)c(Cl)c5)(C(F)(F)F)C4)ccc32)C1 (stereo not drawn) [Example 49a, Chiral-(5′-(5-(3,5-dichloro-4-fluorophenyl)-5-(trifluoromethyl)-4,5-dihydroisoxazol-3-yl)-2′,3′-dihydrospiro[azetidine-3,1′-inden]-1-yl)(1,1-dioxidothietan-3-yl)methanone] | ≤ 1 | ≤ 0.01 | ≤ 0.3
15 | CS(=O)(=O)CC(=O)N1CC2(C1)OCc1cc(C3=NOC(c4cc(C(F)(F)F)c(Cl)c(C(F)(F)F)c4)(C(F)(F)F)C3)ccc12 (centres unmarked) [Example 57, 1-(5′-(5-(4-chloro-3,5-bis(trifluoromethyl)phenyl)-5-(trifluoromethyl)-4,5-dihydroisoxazol-3-yl)-3′H-spiro[azetidine-3,1′-isobenzofuran]-1-yl)-2-(methylsulfonyl)ethanone] | ≤ 1 | ≤ 0.01 | –
